# Results as given in the supplement of paper PMC7335073.
# The full ranking holds about 4,100 sequences; the median of “relative CpG methylation activity (normalised to average over all NNNCGNNN flanks)” is about 0.94, and the highest 2% start at about 1.9. The list shows a part of the results.
# Molecular target: DNMT3B catalytic domain (mouse) (UniProt O88509)
# Experiment: relative CpG methylation activity (normalised to average over all NNNCGNNN flanks) (relative (1 = mean)); higher = more methylation of the central CpG
# Conditions: system: in vitro, murine catalytic domain; CpG state: hemimethylated substrate pool; residues: 558-859
# Outline: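 Murine DNMT3A or DNMT3B catalytic domain methylated pooled dsDNA substrates, each carrying a central CpG within 10 random flanking nucleotides, with 0.8 mM S-adenosyl-L-methionine in HEPES pH 7.5 buffer at 37 °C for 60 min. Proteinase K treatment, BsaI-HFv2 digestion, hairpin ligation, bisulfite conversion and two-step PCR preceded Illumina sequencing. Relative methylation activity is the average methylation of a flanking context divided by the mean across all contexts, where a context spans three bases on each side, and every experiment was repeated twice independently.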
# UniProt O88509, sequence (O88509 558-859): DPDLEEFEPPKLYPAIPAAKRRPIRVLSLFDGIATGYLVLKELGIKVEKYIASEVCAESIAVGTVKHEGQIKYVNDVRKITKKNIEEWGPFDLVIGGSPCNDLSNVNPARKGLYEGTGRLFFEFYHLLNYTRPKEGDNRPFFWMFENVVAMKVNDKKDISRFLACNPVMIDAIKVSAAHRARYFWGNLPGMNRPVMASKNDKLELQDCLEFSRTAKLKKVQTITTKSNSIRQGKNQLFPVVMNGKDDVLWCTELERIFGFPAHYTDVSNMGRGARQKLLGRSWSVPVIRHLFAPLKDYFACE
row,Sequence,relative CpG methylation activity
1,GGACGCTT,1.05
2,CCTCGTAG,0.54
3,GCACGATT,1.81
4,TATCGCCT,0.949
5,TGACGGCC,1.54
6,ATACGTCA,1.37
7,TATCGAGG,1.5
8,GCACGCGG,0.792
9,TACCGTTC,0.567
10,TTGCGTTG,1.03
11,AATCGTCA,0.562
12,GCCCGCGC,0.756
13,CGGCGACG,0.698
14,AATCGTGA,0.231
15,GGCCGCAG,0.204
16,TACCGTGA,0.329
17,GGCCGAGG,0.95
18,TGACGGCA,1.53
19,CACCGGTA,1.2
20,TTACGCGA,1.32
21,GCTCGATT,1.44
22,GTACGCAC,1.36
23,TGTCGGCC,1.37
24,GCCCGAAA,1.25
25,CTCCGCGT,0.717

row,Sequence,relative CpG methylation activity
1,CATCGCAG,0.454
2,GAGCGAGG,1.07
3,AGACGCTG,0.968
4,TTACGCAT,1.44
5,CGACGGTA,1.21
6,CAACGCTA,1.15
7,CATCGACT,1.57
8,TCACGCTA,0.988
9,ATTCGGTA,1.26
10,CTTCGGAG,1.04
11,TCTCGGAA,0.758
12,ATTCGGAC,1.08
13,GCCCGCTC,1.05
14,TCACGGCT,1.83
15,ATCCGTCT,1.17
16,ATGCGCTT,0.883
17,CTCCGTCA,1.09
18,TAACGCGC,1.25
19,GAGCGTAA,0.459
20,CGACGAAT,1.09
21,TACCGTAC,1.06
22,CACCGGGA,1.18
23,GACCGTGA,0.114
24,TGTCGCGA,0.194
25,ATGCGGGC,1.43

row,Sequence,relative CpG methylation activity
1,TGTCGTTA,0.214
2,AGTCGCAG,0.242
3,CCACGTTG,0.521
4,TGTCGGGA,1.1
5,CCTCGGCG,1.72
6,TACCGTAG,0.176
7,CTGCGCGT,0.694
8,TGCCGTCG,0.205
9,CGACGGCC,1.46
10,TTACGTGT,1.24
11,GATCGCCC,0.736
12,CAACGGTG,1.49
13,CACCGCGA,0.31
14,GCACGGTC,1.47
15,TAGCGAAA,0.838
16,CAACGGAT,1.02
17,CGTCGCTC,0.705
18,TATCGGCA,1.95
19,ACTCGGAA,0.769
20,GCGCGTGA,0.478
21,AGTCGTAA,0.127
22,TGTCGGCA,1.54
23,CTACGGTG,1.7
24,CAGCGATT,1.14
25,GCTCGTTG,0.295

row,Sequence,relative CpG methylation activity
1,GGCCGTCC,0.655
2,TCTCGTCG,0.785
3,ACTCGGTA,1.12
4,CATCGCGT,0.667
5,TGACGAGG,1.23
6,GGACGAGC,1.7
7,GAGCGTAT,0.648
8,GGCCGCAT,0.203
9,ACCCGGGG,1.47
10,CGTCGCAC,0.431
11,AAGCGTTT,0.413
12,TCGCGGTC,0.887
13,CTACGGGG,1.9
14,TTCCGTCC,1.57
15,ACGCGGTG,0.999
16,ACACGTGG,0.376
17,GCTCGACA,1.19
18,GGACGGGA,1.15
19,TGGCGTTC,0.177
20,CGTCGGAT,0.754
21,ATTCGATC,1.64
22,TTACGCAG,1.3
23,TATCGAAT,1.41
24,AGCCGGGC,0.73
25,CGGCGAAA,0.759

row,Sequence,relative CpG methylation activity
1,ATCCGGAG,0.728
2,CGTCGCGG,0.625
3,CTTCGAAA,1.57
4,TTTCGTTC,1.09
5,TATCGGCC,2.01
6,CTTCGATC,1.65
7,TTTCGAGT,1.88
8,GTTCGGGA,1.24
9,CCACGAAG,1.12
10,ATCCGAGC,1.68
11,CTGCGCAG,0.754
12,ACCCGCAA,0.492
13,CAACGATA,1.77
14,TAGCGGCC,1.23
15,CGACGCTC,1.04
16,GATCGAGT,1.14
17,CTACGAGC,2.12
18,TAACGCTA,1.1
19,CCGCGCAA,0.463
20,GTTCGAGC,1.66
21,ATACGCAG,1.1
22,TCGCGTAG,0.566
23,GACCGCCA,0.457
24,TCACGATT,1.62
25,ATACGCCC,1.69

row,Sequence,relative CpG methylation activity
1,GCACGGAC,1.46
2,CAGCGGAT,0.496
3,TGGCGGGA,0.753
4,CTCCGAGA,1.73
5,ATTCGTTC,0.876
6,ACGCGAAG,0.742
7,GTACGGTC,1.87
8,TTTCGTCT,0.942
9,CCTCGACG,1.2
10,CTGCGCTG,0.95
11,TACCGATA,1.41
12,ATGCGGGT,1.25
13,GGTCGCGG,0.472
14,GTTCGGGT,1.37
15,ATACGAAA,1.6
16,GTGCGTAA,0.796
17,CTTCGCAC,0.989
18,TATCGAAC,1.75
19,CAGCGGTA,0.98
20,TGGCGATC,1.08
21,AGCCGTTT,0.174
22,GACCGTCA,0.328
23,CCTCGAGC,1.57
24,TCCCGCGA,0.402
25,CATCGAAT,1.56

row,Sequence,relative CpG methylation activity
1,CGCCGTAG,0.147
2,GCCCGCTA,0.804
3,CCGCGCGG,0.612
4,ATTCGGTT,1.37
5,TCTCGCTG,0.568
6,TCACGGTT,1.17
7,TTTCGGAG,0.893
8,AAGCGCAC,0.574
9,CAACGTTG,0.698
10,TTGCGTTT,0.893
11,TTGCGAGT,1.17
12,TCGCGCTC,0.83
13,GTTCGGAT,1.03
14,CCTCGCGG,0.599
15,GGCCGACA,0.701
16,CATCGCGG,0.514
17,CCTCGTAA,0.553
18,TTGCGTGA,0.744
19,TGTCGCCT,0.688
20,CGACGCAA,0.51
21,TATCGTAC,1
22,CGGCGGCA,1.28
23,ATACGTTG,0.943
24,AACCGCTA,0.438
25,TACCGCAC,0.649

row,Sequence,relative CpG methylation activity
1,GGACGTTT,0.617
2,GTTCGGAA,0.839
3,TTACGGTC,2.02
4,CGTCGTTG,0.207
5,GTGCGACC,1.15
6,GTTCGACT,1.08
7,AGGCGCTC,0.49
8,TGACGACT,1.03
9,CCTCGGGC,1.43
10,ACCCGGTA,1.22
11,GAACGCCA,1.35
12,GATCGGTT,1.04
13,ATACGACA,1.67
14,CGACGGCG,1.93
15,GGACGTAC,0.957
16,CTCCGTTT,0.739
17,AATCGTGC,0.376
18,CAACGAGC,1.74
19,TGTCGTGC,0.493
20,GCGCGTCC,0.656
21,CCACGTAG,0.8
22,GACCGGGG,0.511
23,CACCGTGT,0.272
24,CAGCGGCC,1.33
25,CGGCGCCC,0.699

row,Sequence,relative CpG methylation activity
1,TTTCGGTC,1.72
2,AGACGGAC,0.98
3,GACCGTAA,0.192
4,GAACGCCC,1.41
5,GAACGTGG,0.576
6,ATTCGGGT,1.25
7,GGCCGGAA,0.306
8,CCACGACG,1.15
9,AGCCGTAG,0.093
10,GGCCGGCA,0.942
11,CAGCGCCA,0.717
12,ATTCGCCG,1.06
13,GTACGGAG,1.39
14,CTTCGTTA,0.45
15,AAACGTTA,0.806
16,GACCGAAG,0.801
17,CAGCGTTG,0.359
18,ATGCGCTA,0.779
19,CCGCGTAA,0.515
20,TTACGGAA,1.64
21,GGCCGATC,1.11
22,AACCGTGT,0.157
23,CTACGCAT,1.19
24,CTACGGCT,2.28
25,TTCCGCGC,0.969

row,Sequence,relative CpG methylation activity
1,CACCGCAT,0.436
2,GCACGTGC,0.799
3,CTGCGTTG,0.895
4,GCCCGACC,1.33
5,ATACGTCT,1.63
6,AATCGGTG,1.03
7,ACCCGATG,1.27
8,CGGCGACA,0.606
9,CGACGCTG,0.442
10,TGCCGTTT,0.287
11,CAGCGGTC,0.91
12,GCCCGTAT,0.411
13,AGCCGGTG,0.487
14,CGTCGAGT,1.36
15,ATGCGGTA,1.09
16,TATCGATA,1.68
17,ACGCGTAT,0.756
18,GAGCGTCG,0.77
19,GATCGAGC,1.74
20,TTGCGCCG,1.22
21,CGTCGAAC,1.4
22,TTTCGGGG,1.47
23,AAGCGTGA,0.333
24,CCTCGACC,1.32
